The source of these data is PubChem BioAssay (NCI).

SMILES strings stand for the structures.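 Growth conditions: 96-well plates. Treatment: test compound, 48 hours, 5 concentrations. Analysis: linear interpolation between bracketing concentrations; unreached endpoints set to highest concentration. Abbreviation: GI50, concentration required for 50% inhibition of growth. TGI: total growth inhibition.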

This assay deals with NCI-H322M lung. Put plainly: inhibition of tumour cell growth, NCI panel, 48 h.
As for `O=c1[nH]c2ccccc2c(=O)c2cc3ccccc3cc12`, the TGI was greater than 100 µM.
In turn, `COc1cc(CCNC2=CC(=O)c3ncccc3C2=O)ccc1O` returned a TGI of 16 µM.
Consider `C/C=C/C(C/C=C(\C)CO[Si](C)(C)C(C)(C)C)O[Si](C)(C)C(C)(C)C` (centres undefined), for which the TGI is greater than 100 µM.
Consider `C/C(=N\NC(N)=S)c1ccc(Oc2ccccc2)cc1`, for which the TGI came out at 33.4 µM.
On to `Nc1ncnc2c1ncn2C1SC(CO)C(O)C1O` (centres undefined), for which the GI50 is 29.3 µM and the TGI worked out at 88.3 µM.
On the same counts, the results for `N=C(N)c1ccc(-c2ccc(-c3cccs3)s2)cc1F` are 0.735 µM and 2.29 µM.
Take `CC(=O)OC1=C(c2ccccc2)S(=O)(=O)c2ccccc21`: the TGI is greater than 100 µM.
`N#Cc1nc(CCC(C(=O)O)N2C(=O)c3ccccc3C2=O)oc1N` (centres undefined) yielded a TGI greater than 100 µM.
In turn, `O=C1C/C(=C\c2ccccc2)C(=O)c2ccccc2N1` came in with a TGI of 30 µM.
On to `Cc1n[nH]c(C)c1-c1c(C)n[nH]c1C`, for which the GI50 was 2.94 µM and the TGI was greater than 28.7 µM.
The compound `COc1cc2c(cc1O)CCN[C@@]21CS[C@H]2c3c(OC(C)=O)c(C)c4c(c3C(COC1=O)N1C2C2NC(Cc3cc(C)c(OC)c(O)c32)[C@@H]1C#N)OCO4` (some centres undefined) showed a TGI of less than 0.01 µM.
With `C=C(CN1CCc2ccccc2C1)c1ccc(C(=O)Nc2cccc(N)c2)cc1`, the GI50 is 24.7 µM and the TGI amounted to 84.7 µM.
Taken in the same sequence, the figures for `CCc1ccc2cc3c(ccc4ccccc43)c3c2c1CC3` were greater than 100 µM and greater than 100 µM.
Consider `CC(C)c1c(C(=O)Nc2ccccc2)c(-c2ccccc2)c(-c2ccc(F)cc2)n1CC[C@@H](O)C[C@@H](O)CC(=O)O`, for which the GI50 was 39.9 µM and the TGI was greater than 100 µM.
On the same counts, the results for `CCC[CH2][Sn]1([CH2]CCC)[O]C(=O)c2cccnc2[S]1` are 14.2 µM and 27.5 µM.
Compound `C[C@H]1CC(=O)C[C@@H]2CC[C@@H]3[C@H](CC[C@]4(C)C(OC(=O)c5cccc6c(=O)c7ccccc7[nH]c56)CC[C@@H]34)[C@]21C` (some centres undefined) came in with a TGI greater than 100 µM.
`O=C1/C(=C/c2ccc(Cl)cc2)NC(=S)N1CN1CCCCC1` gave a TGI greater than 100 µM.
Turning to `CCOP(=O)(OCC)/C(F)=C/c1ccc(F)cc1`, the TGI was greater than 100 µM.
With `COc1cc(-c2nn(-c3cccc(NC(=O)NCCNC(=O)c4ccccc4)c3)cc2-c2ccncc2)ccc1Cl`, the GI50 was 6.16 µM and the TGI is greater than 100 µM.
The compound `O=C(/C=C/c1c[nH]c2ccccc12)c1ccccc1O` had a TGI of 23.6 µM.
For `CC1(C)CCC(c2ccc(Cl)cc2)=C(CN2CCN(c3ccc(C(=O)NS(=O)(=O)c4ccc(N[C@H](CCN5CCOCC5)CSc5ccccc5)c(S(=O)(=O)C(F)(F)F)c4)cc3)CC2)C1`, the GI50 was 1.85 µM and the TGI came to 4.45 µM.
Turning to `CCO/C=N\C1=C(C#N)SC2=N/C(=C\c3ccco3)C(=O)N21`, the TGI is greater than 100 µM.
The compound `O=C1N(c2ccccc2)C2(O)C(=O)c3ccccc3C2(O)N1c1ccccc1` (centres undefined) registered a TGI greater than 100 µM.
Still for that read-out and setting: under `COC(=O)c1c(O)ccc2c1c1c(n2CCc2ccccc2)C(=O)c2ccccc2C1` stands greater than 100 µM.
Same read-out and setting: under `COc1ccc(Cc2nc3cc(C(F)(F)F)ccc3n2C[C@@H]2CCCN3CCCCC23)cc1` (some centres undefined) stands 27.6 µM.
On the same count and under the same terms, under `CC1=C(C(N)=O)C(c2ccncc2)C(C#N)C(=O)N1` (centres undefined) stands greater than 100 µM; under `C/C(=N\NC(N)=O)C(CN1CCOCC1)C(c1ccccc1)c1c(O)c2ccccc2oc1=O` (centres undefined), greater than 100 µM; under `CCOc1cc(NC(C)=O)ccc1C(=O)NN1C(=O)/C(=C/c2ccc(Cl)cc2)N=C1c1ccccc1`, greater than 100 µM.
In the case of `C=C1C(=O)O[C@H]2[C@@H]3O[C@@](C)(CC/C=C(\C)CCC[C@@H]2C)[C@H](O)C[C@@H]13`, the TGI is 36.1 µM.
`COc1cc2nc(NC3CCC3)nc(NC3CCN(C(C)C)CC3)c2cc1OC`: the GI50 was 3.01 µM and the TGI is 13.2 µM.
As to `CC1SC(c2ccc(OCc3ccccc3)cc2)N(NC(=O)C(O)(c2ccccc2)c2ccccc2)C1=O` (centres undefined), the GI50 is 4.84 µM and the TGI was 20.5 µM.
As for `N#CSc1c[nH]c2cccc(/C=C/C(=O)/C=C(O)/C=C/c3cccc4[nH]cc(SC#N)c34)c12`, the GI50 is 0.981 µM and the TGI came to 4.22 µM.
In the case of `CS(=O)(=O)Sc1ccc(Cl)cc1`, the TGI turned out to be 32.4 µM.
In turn, `O=C(O)c1ccc2nc(-c3ccccn3)c(-c3ccccn3)nc2c1` had a TGI greater than 100 µM.
The same measure, in the same setting: under `N#CC(C#N)=CNC(=S)Nc1ccc(S(=O)(=O)Nc2nccs2)cc1` stands greater than 100 µM; under `COC(=O)c1nc2n(n1)-c1ccccc1C(=O)N(Cc1ccccc1)C2`, greater than 100 µM.
On the same count and under the same terms, under `CCCCCCCC(=O)N1C2CC3CCC2(CS1(=O)=O)C3(C)C` (centres undefined) stands greater than 10 µM.
